Hit rate of the full screen: of about 310,000 compounds, about 18,000 (5.8%) were called active. Inconclusive means that the source gave no clear call. Such entries were picked first, then a sample of the others. Calls come from the whole dose curve; as a rule, active = well fitted inhibition curve with a large enough effect; inconclusive = small, poorly fitted or top-dose-only effect, or another doubt; inactive = no such curve, though single readings can be large or run the other way. Potencies of inconclusive entries are left out as doubtful fits.
test: Primary qHTS for delayed death inhibitors of the malarial parasite plastid, 48 hour incubation; settings: P. falciparum luciferase growth in erythrocytes; series mostly up to 28.7 µM; activity change, negative = inhibition: at the top concentration
Summary of the method: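 Erythrocytes infected with P. falciparum carrying an integrated firefly luciferase reporter (2% hematocrit, 0.1% parasitemia final) were exposed to compounds in RPMI 1640 with 0.5% Albumax at 37 C, 5% CO2. Growth inhibition was scored as reduced luminescence.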
% is set by controls: 0 for no effect and ±100 for the full control effect; potency is the fitted concentration of half-maximal effect; tags give direction and shape of the fitted curve.

Compound	Potency	activity change, negative = inhibition
C/C(=N\NC(=O)C1CC1)c1ccc(Cl)cc1	inconclusive [inhibitor, partial curve, poor fit]	–
COc1ccc(CNC(=O)C(C)n2nc(C)c3c(C)n(-c4ccccc4)nc3c2=O)c(OC)c1 (stereo not drawn)	inconclusive [inhibitor, partial curve]	–
CCC1Sc2ccc(S(=O)(=O)N3CCN(c4ccccc4)CC3)cc2NC1=O (stereo not drawn)	inconclusive [inhibitor, partial curve, poor fit]	–
Cc1cccc(N2CCN(c3cc(C)nc4nnnn34)CC2C)c1 (stereo not drawn)	inconclusive [inhibitor, partial curve]	–
CCOC(=O)[C@@H]1[C@H]2COc3cc(OC)ccc3[C@@H]2N2C(=O)N(c3ccc(C(F)(F)F)cc3)C(=O)[C@]12C	inconclusive [inhibitor, full curve]	–
Cc1ccc(CN2CCc3c(OCc4ccc(F)cc4)cccc3C2=O)cc1	inconclusive [inhibitor, partial curve]	–
Cc1cccc(C)c1C(OCCN(C)C)C1CCCCC1 (stereo not drawn)	inconclusive [inhibitor, single point]	–
CC(C)Cc1cc(CN2CCCC(CO)(Cc3cccc(Cl)c3)C2)[nH]n1 (stereo not drawn)	inconclusive [inhibitor, single point]	–
CC(=O)Nc1ccc(S(=O)(=O)N(Cc2cccnc2)Cc2cc3ccc(C)cc3[nH]c2=O)cc1	inconclusive [inhibitor, single point]	–
O=C1CCCN1C(=O)CSc1ncnc2sccc12	inconclusive [inhibitor, partial curve, poor fit]	–
CCOc1ccc(OCCCC(=O)NC2=NCCS2)cc1	–	inactive: 0.463%
CC(=O)N1CCN(c2ccc(NCc3ccc(Br)o3)cc2)CC1	inconclusive [inhibitor, single point]	–
O=C1Nc2ccccc2S/C1=C/c1cccs1	–	inactive: 37.6%
CS(=O)(=O)N(CC(=O)NCc1ccccc1)c1ccc(Cl)cc1	–	inactive: 8.37%
CCN(c1ccccc1)S(=O)(=O)c1ccc(Cl)c(C(=O)N(CC2CCCO2)C2CCS(=O)(=O)C2)c1 (stereo not drawn)	active: 1.65 µM	–
COc1ccc(-c2nc3c(c4nnc(SC(C)C(=O)Nc5ccc(C)cc5)n24)COC(C)(C)C3)cc1 (stereo not drawn)	active: 7.38 µM	–
Cn1ncc2c(N3CCN(c4ccccc4F)CC3)ncnc21	inconclusive [inhibitor, partial curve]	–
Cn1ccsc1=NC(=O)c1ccc(S(C)(=O)=O)c([N+](=O)[O-])c1	–	inactive: 42.1%
CCOc1ccc(CCNC(=O)COC(=O)Cc2ccc(F)cc2)cc1OCC	inconclusive [inhibitor, single point]	–
COC(=O)c1ccc(NC(=O)CSc2nnc(C3CC3)n2C)cc1	–	inactive: -5.32%
Cc1cc(C)nc(N2CCCC(C(=O)NCCC3=CCCCC3)C2)n1 (stereo not drawn)	–	inactive: -3.66%
O=C(CCCC(=O)OCC(F)(F)C(F)F)Nc1ccccc1F	inconclusive [inhibitor, partial curve, poor fit]	–
CCC(C)c1ccc(NC(=S)NCCn2cc(Cl)cn2)cc1 (stereo not drawn)	active: 9.28 µM	–

Compound	Potency	activity change, negative = inhibition
CC(C)(C)NC(=O)CSc1nnc(Cc2ccc3c(c2)OCO3)n1C1CCCCC1	inconclusive [inhibitor, full curve, poor fit]	–
O=C1C(=O)c2cccc3cccc1c23	active: 10.4 µM	–
CC(C)S(=O)(=O)C1=NSC2=NC(=O)/C(=C\c3ccc(OC(=O)c4ccco4)cc3)C(=N)N21	inconclusive [inhibitor, partial curve, poor fit]	–
O=C(N/N=C\c1cn[nH]c1-c1ccccc1)c1cccs1	–	inactive: 24.6%
CC(=O)Nc1ccc(S(=O)(=O)N[C@H](C(=O)O)C(C)C)cc1	–	inactive: 3.86%
Cc1ccc[n+](CC(=O)Nc2ccc(N(C)C)cc2)c1	–	inactive: -18.4%
COc1ccc(C2CC(c3ccccc3)=NN2C(=O)COC(=O)c2ccc(S(C)(=O)=O)cc2)cc1 (stereo not drawn)	inconclusive [inhibitor, single point]	–
Cc1cc(C)c(NC(=O)CN(C)C(C)C(=O)N2CCc3ccccc32)c(C)c1 (stereo not drawn)	inconclusive [inhibitor, partial curve, poor fit]	–
Cc1cc(CN2CCC(N3CCC(C(=O)NC4CC4)CC3)CC2)cc(C)c1O	inconclusive [inhibitor, single point]	–
COc1ccc(S(=O)(=O)N2CCOCC2)cc1NC(=O)CCc1c[nH]c2ccccc12	inconclusive [inhibitor, single point]	–
CCOC(=O)N1CCN(C(=O)CCC(=O)N2CCOc3ccc(C)cc32)CC1	inconclusive [inhibitor, partial curve]	–
CCN(CC)S(=O)(=O)c1ccc(C)c(NC(=O)CNc2cccc(S(=O)(=O)N3CCCC3)c2)c1	active: 11.7 µM	–
CC(NC(=O)/C=C/c1ccccc1)c1ccccc1 (stereo not drawn)	–	inactive: -20.9%
N#Cc1cc(C(=O)c2cc(F)ccc2O)cn(Cc2ccccc2)c1=O	inconclusive [inhibitor, partial curve]	–
O=C(NC1CCCCC1)C(c1ccccc1)N(Cc1ccco1)C(=O)Cn1cnc2ccccc21 (stereo not drawn)	active: 3.7 µM	–
Cc1ccccc1CN1CCC(n2nccc2NC(=O)CCOc2ccccc2)CC1	inconclusive [inhibitor, single point]	–
Cc1ccc(C)c(NC(=O)c2nnn(Cc3ccccc3)c2N)c1	inconclusive [inhibitor, partial curve, poor fit]	–
Cc1ccc(NC(=O)c2cccc(F)c2)cc1S(=O)(=O)N1CCCCCC1	inconclusive [inhibitor, single point]	–
COCCOC(=O)C1=C(C)NC(C)=C(C(=O)OCCOC)C1/C=C/c1ccccc1OC	inconclusive [inhibitor, partial curve]	–
COc1ccc(C(=O)N2N=C(c3cccc(NS(C)(=O)=O)c3)CC2c2cccs2)cc1 (stereo not drawn)	inconclusive [inhibitor, single point]	–
COc1ccc2c(-c3ccccc3)cc(N3CCOCC3)nc2c1	inconclusive [inhibitor, single point]	–
O=C(NCCCN1CCCC1=O)C1CCN(S(=O)(=O)c2ccccc2)CC1	inconclusive [inhibitor, single point]	–
CCN(CC(=O)Nc1ccccc1C(F)(F)F)C(=O)c1cc2c(s1)CCCCC2	inconclusive [inhibitor, single point]	–

Compound	Potency	activity change, negative = inhibition
COc1cccc(Cl)c1NC(=O)N1CCN(c2cc(C)nc3ccccc23)CC1	inconclusive [inhibitor, single point]	–
S=C(Nc1ccccc1Cl)N1CCCCCC1	–	inactive: 8.82%
CCC1(c2ccccc2)NC(=O)N(CC(=O)N(C)Cc2c(F)cccc2Cl)C1=O (stereo not drawn)	inconclusive [inhibitor, single point]	–
Cc1ccc2nc(-c3ccncc3)cc(-c3ccccc3)c2c1	active: 10.4 µM	–
O=C(Nc1cccc(Cl)c1N1CCCC1)c1ccc(Br)o1	–	inactive: 1.56%
COc1ccc(/C=N/NC(=O)OC(C)(C)C)cc1OC	inconclusive [inhibitor, single point]	–
COc1cc2c(cc1OC)C(c1cccs1)N(C(=O)c1cccc(S(=O)(=O)N(C)C)c1)CC2 (stereo not drawn)	inconclusive [inhibitor, partial curve]	–
COc1ccc(C(CNC(=O)COc2ccc(F)cc2Cl)N2CCCCC2)cc1 (stereo not drawn)	inconclusive [inhibitor, single point]	–
CCN1CCOC(CC(=O)Nc2ccc([N+](=O)[O-])cc2)C1=O (stereo not drawn)	–	inactive: 60.3%
CCOC(=O)C1(Cc2cccc(OC)c2)CCN(Cc2cccc(OC)c2OC)CC1	inconclusive [inhibitor, single point]	–
Cc1coc2c1c(C)cc1oc(=O)c(Cc3ccccc3)c(C)c12	inconclusive [inhibitor, partial curve, poor fit]	–
OC1=C(O)c2nc3cc(C(F)(F)F)ccc3nc21	inconclusive [inhibitor, single point]	–
Cc1cc(Br)ccc1NC(=O)C(C)c1ccc([N+](=O)[O-])cc1 (stereo not drawn)	inconclusive [inhibitor, single point]	–
FC(F)(F)c1ccc(C2[C@H]3CN(Cc4ccc(-c5ccccc5)cc4)[C@H](c4ccccc4)C34CC2(c2cccnc2)C4)cc1 (stereo partly drawn)	active: 3.29 µM	–
O=C1CC(c2ccccc2)=Nc2ccccc2N1Cc1ccccc1	inconclusive [inhibitor, full curve]	–
CCn1c(C(O)c2ccccc2)nc2ccccc21 (stereo not drawn)	inconclusive [inhibitor, single point]	–
O=C(CCN1C(=O)/C(=C\c2cccs2)SC1=S)Nc1ccccn1	inconclusive [inhibitor, partial curve, poor fit]	–
CCCN1CCc2c(sc(NC(=O)c3ccc(S(=O)(=O)N(C)c4ccccc4)cc3)c2C(N)=O)C1	active: 9.28 µM	–
CCc1cc(C(=O)OCC(=O)N2CCC(c3ccccc3)=N2)sc1C	–	inactive: 15.6%
Cc1cc(OCC(=O)N2CCC(C(=O)NCC(C)C)CC2)c2c3c(c(=O)oc2c1)CCCC3	inconclusive [inhibitor, partial curve, poor fit]	–
CC(O)CNc1nc2c(c(=O)n(C)c(=O)n2C)n1Cc1cccc(C(F)(F)F)c1 (stereo not drawn)	–	inactive: -3.93%
Cc1ccc(C(=O)OCC(=O)NCc2ccc(Cl)cc2Cl)o1	–	inactive: -14%

— PubChem BioAssay AID504832 (National Center for Advancing Translational Sciences (NCATS), 2011)
